Several values for one entry are separate records, joined by “and”; a condition that tells them apart may be missing. Equal values may be shown once. In all, about 340,000 compounds went through this assay and about 6,900 (2%) were called active. No stated cut-off is given here; in the data, active means inhibition above about 30%; inactive means below that, where a call was filed. This is a selection; strong and weak results do not stand in their true shares. Where no call is shown, the source filed none.
Each compound was assayed against D(2) dopamine receptor (Homo sapiens) (UniProt P14416) (assay: HTS Assay for Allosteric Antagonists of the Human D2 Dopamine Receptor: Primary Screen for Antagonists). Details: HEK293 TREx D2 cells, calcium flux, dopamine EC80; at 10 µM; stronger effect = higher value.
Sequence of UniProt P14416 (P14416 whole entry, looked up): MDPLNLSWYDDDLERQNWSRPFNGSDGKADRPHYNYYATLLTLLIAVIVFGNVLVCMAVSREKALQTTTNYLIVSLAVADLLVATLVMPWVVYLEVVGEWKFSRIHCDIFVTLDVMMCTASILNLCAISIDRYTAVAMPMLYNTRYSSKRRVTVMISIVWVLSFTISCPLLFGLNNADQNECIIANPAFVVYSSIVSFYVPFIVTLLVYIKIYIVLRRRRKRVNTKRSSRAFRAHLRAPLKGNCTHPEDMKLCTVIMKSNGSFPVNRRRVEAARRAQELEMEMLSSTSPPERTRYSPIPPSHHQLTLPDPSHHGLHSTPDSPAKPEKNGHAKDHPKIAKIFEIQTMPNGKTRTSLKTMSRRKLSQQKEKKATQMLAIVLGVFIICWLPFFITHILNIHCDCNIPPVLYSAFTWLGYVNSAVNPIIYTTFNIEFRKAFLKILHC
Procedure, shortened: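 Calcium flux kinetic readout in an inducible HEK293 TREx D2 line plated overnight at 30 C. After 180 s compound exposure, an EC80 dopamine challenge follows with another 180 s kinetic read to detect antagonism.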
Further: 0% is about no effect.

| SMILES | inhibition |
| --- | --- |
| CCC(C)NC(=O)c1cc2cc(S(=O)(=O)N3CCCCC3)ccc2n1C (stereo not given) | 18.4% |
| CCN1CCN(c2ncc3c(n2)CCN(Cc2cc(Br)cs2)C3)CC1 | -26.5% |
| Cc1c(O)nc(SCC(=O)Nc2ccc(Cl)cc2Cl)n(-c2ccc(F)cc2)c1=O | -1.91% |
| O=C(NCC(c1ccc2c(c1)OCO2)N1CCOCC1)c1ccccc1 (stereo not given) | -2.9% |
| Cc1nn(C)c2c1c(C(F)(F)F)cc(=O)n2CC(=O)NCc1ccc(OC(C)C)cc1 | -6.04% |
| CCC(C)c1ccc(OCC(=O)Nc2cccc3ccc(C)nc23)cc1 (stereo not given) | 7.16% |
| CCc1ccccc1NC(=O)CCNS(=O)(=O)c1ccc2c(c1)CCCC(=O)N2 | -12.8% |
| CCCCCCOc1ccc(/C=C/C(=O)Nc2sc3c(c2C(=O)OC)CCC3)cc1OC | -2.7% |
| Cc1onc(-c2ccccc2)c1C(=O)Nc1nnc(COc2ccc(Cl)cc2)s1 | active: 38.9% |
| COc1ccc(NC(=O)Cn2c(=O)oc3ccccc32)cc1 | -1.12% |
| CCc1nnc(NC(=O)CCC(=O)Nc2ccc(C)cc2)s1 | active: 43.2% |
| O=C(CSc1nc2ccsc2c(=O)n1Cc1ccc(F)cc1)NCc1ccc(Cl)cc1 | 1.6% |
| CN1c2ccc(Cl)cc2-c2nc(SCC(=O)NCc3ccc(F)cc3)ncc2S1(=O)=O | 10.8% |
| CC1=C(C(=O)Nc2ccc(C)cc2C)C(c2ccccc2)n2nc(SCC(=O)c3ccc(C)cc3)nc2N1 (stereo not given) | -2.98% |
| CCCCNC(=O)CCC1N=C2c3ccccc3N=C(SCC(=O)NCCc3ccc(OC)c(OC)c3)N2C1=O (stereo not given) | 15.9% |
| Cc1ccc2nc(-c3ccc(NC(=O)Cc4ccccc4)cc3)sc2c1 | 9.43% |
| CCN(CC)CCNC(=O)CCn1c(=O)c2cccn2c2cccnc21 | -0.786% |
| Cc1cc(N2CC(=O)N(CCc3ccccc3)C(=O)C2)n2ncnc2n1 | active: 32% |
| CCN(CC)CCn1c(NCc2ccc3c(c2)OCO3)nc2ccccc21 | active: 32.7% |
| CC(=O)c1ccc(NC(=O)Cn2nc(C(F)(F)F)c3c2CCC3)cc1 | -5.63% |
| O=C(Cn1ncc2c3ccccc3n(Cc3ccccc3)c2c1=O)NCc1cccs1 | 10.6% |
| CCOC(=O)C1=C(CN2CCN(c3ccc(Cl)cc3)CC2)NC(=O)NC1c1ccc(OC)cc1 (stereo not given) | -1.26% |
| COc1cccc2sc(NC(=O)c3ccc4c(c3)OCCO4)nc12 | 10.9% |
| CCc1nc2ccc(C(=O)N3CCN(c4ccccc4F)CC3)cc2nc1CC | 8.81% |

| SMILES | inhibition |
| --- | --- |
| Cc1ccc(Cl)cc1N1CCN(C(=O)Cn2cnc3onc(-c4ccc(F)cc4)c3c2=O)CC1 | 2.11% |
| O=C(CCn1c(=O)c2sccc2n(Cc2ccc(F)cc2)c1=O)NCc1ccc2c(c1)OCO2 | -16.1% |
| COc1cccc(C2CC(=O)Nc3c2c(=O)n(C)c2nc4ccccc4n32)c1OC (stereo not given) | 10.7% |
| Cc1ccc(-n2nc3cc(C)c(NC(=O)c4ccc(-c5ccccc5)o4)cc3n2)cc1 | -1.36% |
| Cc1ccc(NC(=O)CC2Oc3ccc(C)cc3NC2=O)c(C)c1 (stereo not given) | 7.94% |
| CCOc1ccc(NC(=O)Cn2c(=O)n(CCc3ccccc3)c(=O)c3c4c(sc32)CCCC4)cc1 | 1.48% |
| COc1cccc(Nc2nnc(-c3cc4ccc(O)cc4oc3=O)s2)c1 | -3.68% |
| CC(=O)Nc1ccc(NC(=O)CSc2nnc(NC(=O)Cc3ccc(F)cc3)s2)cc1 | active: 34% |
| Cc1ccc(Cl)cc1NC(=O)Cn1c(=O)cc(C)c2c(C)nn(C)c21 | 5.08% |
| Cc1ccc(CNC(=O)CCNS(=O)(=O)c2ccc3c(c2)oc(=O)n3C)cc1 | -24.8% |
| O=C(COc1ccc(Br)cc1Br)Nc1ccc(S(=O)(=O)Nc2ncccn2)cc1 | 3.28% |
| Cc1oc(-c2cccc(Cl)c2)nc1CN1CCC(C(=O)NC(C)C)CC1 | 0.237% |
| Cc1cc(C)c(S(=O)(=O)Nc2ccc3oc(C)c(C(=O)OC(C)C)c3c2)cc1C | -13.5% |
| Cc1ccc(-c2cn3c(n2)sc2cc(C(=O)NCCCN4CCCCCC4)ccc23)cc1 | 4.22% |
| CC1=C(c2ccc(C)c(C)c2)S(=O)(=O)N=C1N1CCC(C(=O)NC(C)c2ccccc2)CC1 (stereo not given) | -8.67% |
| CCCN(CCC)C(=O)c1cc2c(=O)n3cccc(C)c3nc2s1 | -5.38% |
| CCc1ccc2oc(C(=O)N(Cc3ccc(N(C)C)cc3)Cc3ccco3)c(C)c2c1 | -12.5% |
| O=C1c2ccccc2-c2onc3c(N4CCN(C5CCCCC5)CC4)cc(NCCO)c1c23 | -23% |
| CC(=O)c1cccc(NC(=O)C2CCN(c3ncnc4c3nc3n4CCCCC3)CC2)c1 | 16.3% |
| COc1cc(-c2cc(OC)c3c(C)oc(C)c3c(=O)c2)ccc1OC(=O)c1ccc(C)cc1 | -14.3% |
| CCOc1ccc(NC(=O)CSC2=Nc3ccccc3C3=NC(CC(=O)NCc4cccs4)C(=O)N23)cc1 (stereo not given) | 2.84% |
| CCN(CC)CCCOC(=O)C(c1ccccc1)c1ccccc1 | active: 49.7% |
| COc1ccc2c(C)c(CC(=O)NCCc3ccc(Cl)cc3)c(=O)oc2c1C | 26.5% |
| CN(C)CCCNS(=O)(=O)c1cc(Cl)ccc1Cl | active: 38.2% |

| SMILES | inhibition |
| --- | --- |
| O=C(CSc1n[nH]c(-c2ccccc2Cl)n1)NCCCc1ccccc1 | -17% |
| Cc1cc(C)cc(OCCSc2nc3ccc(NC(=O)c4cccs4)cc3s2)c1 | 12% |
| CCOc1ccc(C(=O)Nc2c(C(=O)Nc3ccccc3OC)oc3ccccc23)cc1OCC | 2.04% |
| O=C(Cn1cc(C(=O)C2CCCCC2)c2ccccc21)Nc1ccccc1Cl | -2.99% |
| COc1ccc(CNC(=O)Cc2c(C(=O)O)c(C)cn2C)cc1 | 9.12% |
| Clc1ccc(CN2CCN(c3ncnc4sc5c(c34)CCCC5)CC2)cc1Cl | 8.28% |
| O=C(CN1C(=O)NC2(CCCCCC2)C1=O)Nc1ccc(Br)cc1Br | active: 37.2% |
| O=C(NCc1ccc(F)cc1Cl)c1cc(=O)[nH]c2ccc(S(=O)(=O)N3CCCCC3)cc12 | -16.4% |
| COc1ccc(-c2nc3scc(CCNS(=O)(=O)c4ccc5c(c4)OCCO5)n3n2)cc1OC | 2.8% |
| Cc1ccsc1CCN1C(=O)N(c2ccccc2)C(=O)C1CC(=O)Nc1ccc(Cl)cc1 (stereo not given) | -20.1% |
| COc1ccc(-c2nc3scc(CCNS(=O)(=O)c4ccc(Oc5ccccc5)cc4)n3n2)cc1OC | -0.691% |
| CCN(CC)C(=O)c1sc2c(c1C)c(=O)n(-c1ccc(C)c(C)c1)c(=O)n2Cc1cc(=O)n2ccccc2n1 | 0.557% |
| COc1ccc(N2CCN(C(=O)CSc3nc(-c4ccc(C(C)C)cc4)no3)CC2)cc1 | 1.48% |
| Cc1ccc2sc(N(Cc3cccnc3)C(=O)CCS(=O)(=O)c3ccccc3)nc2c1C | 0.1% |
| O=C(CNC(=O)c1ccccc1)OCc1cc(=O)n2nc(C3CCCCC3)sc2n1 | 4.43% |
| CCN(CC)C(=O)c1sc2c(c1C)c(=O)n(Cc1ccccc1)c(=O)n2Cc1ccccc1C | -0.629% |
| CC(=O)c1cccc(NC(=O)Nc2sc3nc4n(c(=O)c3c2C)CCC(C)CC4)c1 (stereo not given) | 13.2% |
| Cc1cn2c(=O)cc(COC(=O)c3ccc(NC(=O)c4ccc(F)cc4)cc3)nc2s1 | 3.33% |
| CCc1ccc(-c2cc(C)no2)cc1S(=O)(=O)NCCCN1CCN(c2ccccc2)CC1 | active: 50.9% |
| CC1CCN(S(=O)(=O)N2CCC(C(=O)NCc3ccccc3Cl)CC2)CC1 | -18.4% |
| COC(=O)c1ccc(Nc2ncnc3c2cnn3C)cc1 | 23.4% |
| Brc1cccc(OCCCCN2CCCCC2)c1 | active: 88% |
| Cc1ccc(C)c(NC(=S)/C(=C(\[O-])c2ccc(OC(F)F)cc2)[n+]2ccccc2)c1 | active: 30.5% |
| COc1ccc(C2c3[nH]c4ccccc4c3CCN2C(=O)CCC2CCCC2)cc1 (stereo not given) | -13.2% |

| SMILES | inhibition |
| --- | --- |
| O=C(Cn1c2[n+](c3ccc(C(F)(F)F)cc31)CCCCC2)Nc1ccc(Br)cc1 | active: 56.2% |
| COc1ccc(CNC(=O)Cc2c(C)c3cc4c(C)coc4cc3oc2=O)cc1OC | 4.5% |
| CC(=O)NNC(=S)NCCc1ccccc1 | active: 48.7% |
| CC(Sc1nccn1C)C(=O)Nc1ccccc1C#N (stereo not given) | 3.41% |
| CCN(CC)c1ccc(NC(=O)c2cc(C)nc3c2c(C)nn3-c2ccc(C)cc2)c(C)c1 | 12.8% |
| Cc1cccc(CN2C(=O)c3ccccc3Sc3ccc(C(=O)NCc4ccco4)cc32)c1 | -4.76% |
| CCOc1ccc(NC(=O)c2oc3ccccc3c2NC(=O)COc2cccc(OC)c2)cc1 | 2.52% |
| CCS(=O)(=O)c1ncc(Cl)c(C(=O)N2CCN(c3ccc(OC)cc3)CC2)n1 | 0.281% |
| NS(=O)(=O)c1ccc(CCNC(=O)C2CCN(c3ncnc4c3nc3n4CCCCC3)CC2)cc1 | 10.7% |
| N#CCCCn1c(O)c(N=NC(=O)C(O)c2ccccc2)c2ccccc21 (stereo not given) | active: 38.5% |
| CCC(CC)C(=O)Nc1nnc(S(=O)(=O)N2CCCCCC2)s1 | -1.87% and active: 31.9% |
| CCC(Sc1nc2c(sc3ccccc32)c(=O)n1CCc1ccc(OC)c(OC)c1)C(=O)N(CC)CC (stereo not given) | 4.19% |
| COc1ccc(CCNC(=O)c2ccc3c(c2)CCN3S(C)(=O)=O)cc1OC | -0.384% |
| Cc1nc(-c2ccc(S(=O)(=O)Nc3cc(Cl)ccc3C)cc2)co1 | 20.1% |
| COc1ccc(Cn2cc(S(=O)(=O)c3ccc(C)cc3)c(=O)c3cc(F)ccc32)cc1 | 17.6% |
| COc1ccc2c(c1)c(=O)c(C(=O)c1ccccc1)cn2CC(=O)Nc1ccc2c(c1)OCO2 | -1.36% |
| COc1ccc2c(CNCCc3ccc(SC)cc3)c(C(=O)O)n(Cc3ccc(F)cc3)c2c1 | -18.3% |
| CCOc1ccc(CCNC(=O)c2cc3c(-c4ccccc4F)nn(C)c3s2)cc1 | 13.7% |
| CCC(Cn1nnc2ccccc2c1=O)NC(=O)Nc1ccccc1OC (stereo not given) | 21.5% |
| O=C(CN1CCN(Cc2ccccc2)CC1)Nc1cccc(C(F)(F)F)c1 | active: 39.2% |
| COc1ccc(-c2cc(-c3ccc(C)cc3)nc3c2COc2ccccc2-3)cc1 | -14.1% |
| Cc1ccc(S(=O)(=O)c2nc(-c3ccc(F)cc3)oc2SCC(=O)NC2CCCCC2)cc1 | -25.9% |
| COc1ccc(Cl)cc1-n1cc(-c2ccccc2)nc1SCC(=O)Nc1ccc(C)cc1 | -24.7% |

— PubChem BioAssay AID485344 (National Center for Advancing Translational Sciences (NCATS), 2010)
